This is one part of the list.
Assays:
Assay in all cases: glycan array binding signal (z-score within array); higher = stronger binding
Conditions in all cases: glycan notation: IUPAC condensed, linker removed
[1] = biological target: GlcNAc(b1-2)Gal(b1-3)GalNAc
Method in brief: (§1)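 Glycan array binding is given as a within-array Z-score, which can be read as non-binding when negative. The arrays, 3228 of them, came from the Consortium for Functional Glycomics database and were retained only where the protein sequence was available. Z-scores were averaged across arrays of the same protein sequence at different concentrations or buffers and across linkers.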

[2] = biological target: GlcNAc(b1-2)Man(a1-3)[GlcNAc(b1-2)Man(a1-6)]Man(b1-4)GlcNAc(b1-4)GlcNAc
Method in brief: as §1

[3] = biological target: GlcNAc(b1-2)Man(a1-3)[GlcNAc(b1-2)Man(a1-6)]Man(b1-4)GlcNAc(b1-4)[Fuc(a1-6)]GlcNAc
Method in brief: as §1

[4] = biological target: GlcNAc(b1-2)Man(a1-3)[GlcNAc(b1-4)][GlcNAc(b1-2)Man(a1-6)]Man(b1-4)GlcNAc(b1-4)GlcNAc
Method in brief: as §1

[5] = biological target: GlcNAc(b1-2)Man(a1-3)[GlcNAc(b1-4)][GlcNAc(b1-2)Man(a1-6)]Man(b1-4)GlcNAc(b1-4)[Fuc(a1-6)]GlcNAc
Method in brief: as §1

[6] = biological target: GlcNAc(b1-2)[GlcNAc(b1-4)]Man(a1-3)[GlcNAc(b1-2)Man(a1-6)]Man(b1-4)GlcNAc(b1-4)GlcNAc
Method in brief: as §1

[7] = biological target: GlcNAc(b1-2)[GlcNAc(b1-4)]Man(a1-3)[GlcNAc(b1-4)][GlcNAc(b1-2)Man(a1-6)]Man(b1-4)GlcNAc(b1-4)GlcNAc
Method in brief: as §1

[8] = biological target: GlcNAc(b1-2)[GlcNAc(b1-4)]Man(a1-3)[GlcNAc(b1-4)][GlcNAc(b1-2)[GlcNAc(b1-6)]Man(a1-6)]Man(b1-4)GlcNAc(b1-4)GlcNAc
Method in brief: as §1

[9] = biological target: GlcNAc(b1-2)[GlcNAc(b1-4)]Man(a1-3)[GlcNAc(b1-4)][GlcNAc(b1-2)[GlcNAc(b1-6)]Man(a1-6)]Man(b1-4)GlcNAc(b1-4)[Fuc(a1-6)]GlcNAc
Method in brief: as §1

[10] = biological target: GlcNAc(b1-2)[GlcNAc(b1-6)]Man(a1-6)[GlcNAc(b1-2)Man(a1-3)]Man(b1-4)GlcNAc(b1-4)GlcNAc
Method in brief: as §1

[11] = biological target: GlcNAc(b1-2)[GlcNAc(b1-6)]Man(a1-6)[GlcNAc(b1-2)Man(a1-3)]Man(b1-4)GlcNAc(b1-4)[Fuc(a1-6)]GlcNAc
Method in brief: as §1

[12] = biological target: GlcNAc(b1-2)[GlcNAc(b1-6)]Man(a1-6)[GlcNAc(b1-4)][GlcNAc(b1-2)Man(a1-3)]Man(b1-4)GlcNAc(b1-4)GlcNAc
Method in brief: as §1

GlcNAc(b1-3)Fuc = biological target: GlcNAc(b1-3)Fuc
Method in brief: as §1

GlcNAc(b1-3)Gal = biological target: GlcNAc(b1-3)Gal
Method in brief: as §1

[13] = biological target: GlcNAc(b1-3)Gal(b1-3)GalNAc
Method in brief: as §1

GlcNAc(b1-3)Gal(b1-4)Glc = biological target: GlcNAc(b1-3)Gal(b1-4)Glc
Method in brief: as §1

[14] = biological target: GlcNAc(b1-3)Gal(b1-4)GlcNAc
Method in brief: as §1

[15] = biological target: GlcNAc(b1-3)Gal(b1-4)GlcNAc(b1-2)Man(a1-3)[GlcNAc(b1-3)Gal(b1-4)GlcNAc(b1-2)Man(a1-6)]Man(b1-4)GlcNAc(b1-4)GlcNAc
Method in brief: as §1

[16] = biological target: GlcNAc(b1-3)Gal(b1-4)GlcNAc(b1-2)Man(a1-3)[GlcNAc(b1-3)Gal(b1-4)GlcNAc(b1-2)Man(a1-6)]Man(b1-4)GlcNAc(b1-4)[Fuc(a1-6)]GlcNAc
Method in brief: as §1

[17] = biological target: GlcNAc(b1-3)Gal(b1-4)GlcNAc(b1-2)[GlcNAc(b1-3)Gal(b1-4)GlcNAc(b1-6)]Man(a1-6)[GlcNAc(b1-3)Gal(b1-4)GlcNAc(b1-2)Man(a1-3)]Man(b1-4)GlcNAc(b1-4)GlcNAc
Method in brief: as §1

[18] = biological target: GlcNAc(b1-3)Gal(b1-4)GlcNAc(b1-3)Gal(b1-4)GlcNAc
Method in brief: as §1

[19] = biological target: GlcNAc(b1-3)Gal(b1-4)GlcNAc(b1-3)Gal(b1-4)GlcNAc(b1-2)Man(a1-3)[GlcNAc(b1-3)Gal(b1-4)GlcNAc(b1-3)Gal(b1-4)GlcNAc(b1-2)Man(a1-6)]Man(b1-4)GlcNAc(b1-4)GlcNAc
Method in brief: as §1

[20] = biological target: GlcNAc(b1-3)Gal(b1-4)GlcNAc(b1-3)Gal(b1-4)GlcNAc(b1-2)Man(a1-3)[GlcNAc(b1-3)Gal(b1-4)GlcNAc(b1-3)Gal(b1-4)GlcNAc(b1-2)Man(a1-6)]Man(b1-4)GlcNAc(b1-4)[Fuc(a1-6)]GlcNAc
Method in brief: as §1

[21] = biological target: GlcNAc(b1-3)Gal(b1-4)GlcNAc(b1-3)Gal(b1-4)GlcNAc(b1-2)[GlcNAc(b1-3)Gal(b1-4)GlcNAc(b1-3)Gal(b1-4)GlcNAc(b1-6)]Man(a1-6)[GlcNAc(b1-3)Gal(b1-4)GlcNAc(b1-3)Gal(b1-4)GlcNAc(b1-2)Man(a1-3)]Man(b1-4)GlcNAc(b1-4)[Fuc(a1-6)]GlcNAc
Method in brief: as §1

[22] = biological target: GlcNAc(b1-3)Gal(b1-4)GlcNAc(b1-3)Gal(b1-4)GlcNAc(b1-3)Gal(b1-4)GlcNAc(b1-2)Man(a1-3)[GlcNAc(b1-3)Gal(b1-4)GlcNAc(b1-3)Gal(b1-4)GlcNAc(b1-3)Gal(b1-4)GlcNAc(b1-2)Man(a1-6)]Man(b1-4)GlcNAc(b1-4)GlcNAc
Method in brief: as §1

[23] = biological target: GlcNAc(b1-3)Gal(b1-4)GlcNAc(b1-3)Gal(b1-4)GlcNAc(b1-3)Gal(b1-4)GlcNAc(b1-2)Man(a1-3)[GlcNAc(b1-3)Gal(b1-4)GlcNAc(b1-3)Gal(b1-4)GlcNAc(b1-3)Gal(b1-4)GlcNAc(b1-2)Man(a1-6)]Man(b1-4)GlcNAc(b1-4)[Fuc(a1-6)]GlcNAc
Method in brief: as §1

[24] = biological target: GlcNAc(b1-3)Gal(b1-4)GlcNAc(b1-3)Gal(b1-4)GlcNAc(b1-3)Gal(b1-4)GlcNAc(b1-2)[GlcNAc(b1-3)Gal(b1-4)GlcNAc(b1-3)Gal(b1-4)GlcNAc(b1-3)Gal(b1-4)GlcNAc(b1-6)]Man(a1-6)[GlcNAc(b1-3)Gal(b1-4)GlcNAc(b1-3)Gal(b1-4)GlcNAc(b1-3)Gal(b1-4)GlcNAc(b1-2)Man(a1-3)]Man(b1-4)GlcNAc(b1-4)[Fuc(a1-6)]GlcNAc
Method in brief: as §1

[25] = biological target: GlcNAc(b1-3)Gal(b1-4)GlcNAc(b1-3)Gal(b1-4)GlcNAc(b1-3)Gal(b1-4)GlcNAc(b1-3)Gal(b1-4)GlcNAc(b1-2)Man(a1-3)[GlcNAc(b1-3)Gal(b1-4)GlcNAc(b1-3)Gal(b1-4)GlcNAc(b1-3)Gal(b1-4)GlcNAc(b1-3)Gal(b1-4)GlcNAc(b1-2)Man(a1-6)]Man(b1-4)GlcNAc(b1-4)GlcNAc
Method in brief: as §1

[26] = biological target: GlcNAc(b1-3)Gal(b1-4)GlcNAc(b1-3)Gal(b1-4)GlcNAc(b1-3)Gal(b1-4)GlcNAc(b1-3)Gal(b1-4)GlcNAc(b1-2)Man(a1-3)[GlcNAc(b1-3)Gal(b1-4)GlcNAc(b1-3)Gal(b1-4)GlcNAc(b1-3)Gal(b1-4)GlcNAc(b1-3)Gal(b1-4)GlcNAc(b1-2)Man(a1-6)]Man(b1-4)GlcNAc(b1-4)[Fuc(a1-6)]GlcNAc
Method in brief: as §1

[27] = biological target: GlcNAc(b1-3)Gal(b1-4)GlcNAc(b1-3)Gal(b1-4)GlcNAc(b1-3)Gal(b1-4)GlcNAc(b1-3)Gal(b1-4)GlcNAc(b1-2)[GlcNAc(b1-3)Gal(b1-4)GlcNAc(b1-3)Gal(b1-4)GlcNAc(b1-3)Gal(b1-4)GlcNAc(b1-3)Gal(b1-4)GlcNAc(b1-6)]Man(a1-6)[GlcNAc(b1-3)Gal(b1-4)GlcNAc(b1-3)Gal(b1-4)GlcNAc(b1-3)Gal(b1-4)GlcNAc(b1-3)Gal(b1-4)GlcNAc(b1-2)Man(a1-3)]Man(b1-4)GlcNAc(b1-4)[Fuc(a1-6)]GlcNAc
Method in brief: as §1

[28] = biological target: GlcNAc(b1-3)Gal(b1-4)GlcNAc(b1-3)Gal(b1-4)GlcNAc(b1-3)GalNAc
Method in brief: as §1

[29] = biological target: GlcNAc(b1-3)Gal(b1-4)GlcNAc(b1-3)GalNAc
Method in brief: as §1

[30] = biological target: GlcNAc(b1-3)Gal(b1-4)GlcNAc(b1-3)[GlcNAc(b1-3)Gal(b1-4)GlcNAc(b1-3)]GalNAc
Method in brief: as §1

[31] = biological target: GlcNAc(b1-3)Gal(b1-4)GlcNAc(b1-6)[Gal(b1-3)]GalNAc
Method in brief: as §1

[32] = biological target: GlcNAc(b1-3)Gal(b1-4)GlcNAc(b1-6)[GlcNAc(b1-3)Gal(b1-3)]GalNAc
Method in brief: as §1

[33] = biological target: GlcNAc(b1-3)Gal(b1-4)GlcNAc(b1-6)[GlcNAc(b1-3)]Gal(b1-4)GlcNAc
Method in brief: as §1

GlcNAc(b1-3)GalNAc = biological target: GlcNAc(b1-3)GalNAc
Method in brief: as §1

B1: PX9961J-bvu-499-24-499 (Bacteroides vulgatus) (protein)
chain: LNTDPSTAVPSDDAIKNIDDAQVALNGIYRLASAHSYYGDNYLYYADCRGEDVQARINKGAGRRVSPYYFFDVTADDNFNITLVWNQPYKVIHQANSLIEKLDAGNAGNARPEEVARIKSEALAMRGLALFDLTRLFGMPYTLDNGASLGVPIEIQTTLEDHAPERNTVAQCYEQVLKDLNDALGGLTKEKHDAYMNYWSVKALLSRVYLYMNDNENALKCAEEVINDNGGIYRLFTHDEYPSVWGKDFNSESLFEFYFTMSEPSGGSGGEGAPMVYADNVKDWNNLILTKAYLDLLNEDPEDVRHVFPHLPENAVADTLPVAAKGQPKYLIKYPGKSGSVTDAVSTVNPQDNDLCILRLSEVYLNAAEAAFKIGNTEKALTYLNAIVTRANPAKSVTSADLSLERILKERRKELVGEGHAFFDYMRNGKSVDRSGGWHLTMPEDARVIAPSDPRVALPIPQTEIDANPNIVQNPR
glycan array binding signal (z-score) [1]: -0.563
glycan array binding signal (z-score) [2]: -0.332
glycan array binding signal (z-score) [3]: 0.034
glycan array binding signal (z-score) [4]: -0.362
glycan array binding signal (z-score) [5]: -0.709
glycan array binding signal (z-score) [6]: -0.361
glycan array binding signal (z-score) [7]: -0.608
glycan array binding signal (z-score) [8]: -0.106
glycan array binding signal (z-score) [9]: -0.831
glycan array binding signal (z-score) [10]: 0.484
glycan array binding signal (z-score) [11]: -0.048
glycan array binding signal (z-score) [12]: -0.381
glycan array binding signal (z-score) (GlcNAc(b1-3)Fuc): 0.038
glycan array binding signal (z-score) (GlcNAc(b1-3)Gal): -0.109
glycan array binding signal (z-score) [13]: -0.149
glycan array binding signal (z-score) (GlcNAc(b1-3)Gal(b1-4)Glc): -0.492
glycan array binding signal (z-score) [14]: -0.048
glycan array binding signal (z-score) [15]: -0.096
glycan array binding signal (z-score) [16]: -0.212
glycan array binding signal (z-score) [17]: 0.828
glycan array binding signal (z-score) [18]: -0.674
glycan array binding signal (z-score) [19]: 0.336
glycan array binding signal (z-score) [20]: 0.659
glycan array binding signal (z-score) [21]: 0.146
glycan array binding signal (z-score) [22]: 0.01
glycan array binding signal (z-score) [23]: 0.511
glycan array binding signal (z-score) [24]: 0.791
glycan array binding signal (z-score) [25]: 0.349
glycan array binding signal (z-score) [26]: 2.84
glycan array binding signal (z-score) [27]: -0.38
glycan array binding signal (z-score) [28]: 0.301
glycan array binding signal (z-score) [29]: 0.1
glycan array binding signal (z-score) [30]: -0.012
glycan array binding signal (z-score) [31]: -0.17
glycan array binding signal (z-score) [32]: -0.322
glycan array binding signal (z-score) [33]: 0.057
glycan array binding signal (z-score) (GlcNAc(b1-3)GalNAc): 0.43

Source: the supplement of paper PMC8728848
